Measurements: the supplement of paper PMC10037445
Whole data set: some 2,900 compounds, median “NF-kB SEAP reporter activity, fold change vs agonist alone” near 0.99, cut for the highest 2% near 2.6. The list shows a part of the results.

How the values were obtained:
RAW-Dual [1] = experiment: NF-kB SEAP reporter activity, fold change vs agonist alone; higher = enhanced NF-kB activity; conditions: library stock concentration (final ~1000-fold dilution): 10 mM
Procedure, shortened: (§1)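 After 50 nL of library stock was delivered by pin tool to RAW-Dual macrophages (50,000 cells/well, DMEM, 384-well plates), a PRR agonist was added 1 h later and the plates were kept at 37 °C, 5% CO2. Twenty hours later, IRF was read from supernatant by QuantiLuc luminescence and NF-κB by QuantiBlue absorbance at 620 nm. Reporter activity is stated as fold change over agonist-alone wells. Wells with IncuCyte confluency under 70% of agonist controls in both mask sets were counted as cytotoxic.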

RAW-Dual [2] = experiment: NF-kB SEAP reporter activity, fold change vs agonist alone; cytotoxicity flag (confluency mask): not cytotoxic; higher = enhanced NF-kB activity
Procedure, shortened: as §1

RAW-Dual [3] = experiment: NF-kB SEAP reporter activity, fold change vs agonist alone; cytotoxicity flag (confluency mask): cytotoxic (confluency <70% of control); higher = enhanced NF-kB activity
Procedure, shortened: as §1

[4] = cytotoxicity flag (confluency mask): not cytotoxic, agonist: Imiquimod (TLR7) […]
[5] = cytotoxicity flag (confluency mask): not cytotoxic, agonist: MPLA (TLR4) […]
[6] = agonist: ODN 1826 (TLR9) 0.5 ug/mL
[7] = agonist: Pam2CSK4 (TLR2/6) 0.1 ug/mL
[8] = agonist: Pam3CSK4 (TLR2/1) 0.1 ug/mL

For Br.N#Cc1ccc(-c2csc(NN=C3CCCC3)n2)cc1, the “NF-kB SEAP reporter activity” value (RAW-Dual [1]; [4]) was 0.97 and the “NF-kB SEAP reporter activity” value (RAW-Dual [1]; [5]) was 1.36.
With Oc1ccc(OCc2ccccc2)cc1 the “NF-kB SEAP reporter activity” value (RAW-Dual [1]; [4]) was 1.74 and the “NF-kB SEAP reporter activity” value (RAW-Dual [1]; [5]) was 1.66.
Oc1ccc(OCc2ccccc2)cc1 (library stock concentration (final ~1000-fold dilution): 10 mM) was tested, and the “NF-kB SEAP reporter activity” value (RAW-Dual [2]; agonist: LPS (TLR4) 0.1 ug/mL) was 1.88, the “NF-kB SEAP reporter activity” value (RAW-Dual [2]; [6]) was 1.8 and the “NF-kB SEAP reporter activity” value (RAW-Dual [2]; [7]) was 1.41. For the same molecule, the “NF-kB SEAP reporter activity” value (RAW-Dual [2]; [8]) was 1.42.
With CCC1=C(C)CN(C(=O)NCCc2ccc(S(=O)(=O)NC(=O)NC3CCC(C)CC3)cc2)C1=O (stereo not given) the “NF-kB SEAP reporter activity” value (RAW-Dual [1]; [4]) was 0.845 and the “NF-kB SEAP reporter activity” value (RAW-Dual [1]; [5]) was 0.962.
With CCC1=C(C)CN(C(=O)NCCc2ccc(S(=O)(=O)NC(=O)NC3CCC(C)CC3)cc2)C1=O (stereo not given) (library stock concentration (final ~1000-fold dilution): 10 mM) the “NF-kB SEAP reporter activity” value (RAW-Dual [2]; agonist: LPS (TLR4) 0.1 ug/mL) was 1.28, the “NF-kB SEAP reporter activity” value (RAW-Dual [2]; [6]) was 0.934 and the “NF-kB SEAP reporter activity” value (RAW-Dual [2]; [7]) was 1.01. For the same molecule, the “NF-kB SEAP reporter activity” value (RAW-Dual [2]; [8]) was 0.958.
For CNC(=O)c1cc(COc2nnc(Nc3ccc(Cl)cc3)c3ccoc23)ccn1 (library stock concentration (final ~1000-fold dilution): 10 mM), the “NF-kB SEAP reporter activity” value (RAW-Dual [2]; agonist: LPS (TLR4) 0.1 ug/mL) was 0.547, the “NF-kB SEAP reporter activity” value (RAW-Dual [2]; [6]) was 0.947 and the “NF-kB SEAP reporter activity” value (RAW-Dual [2]; [7]) was 0.802. For the same molecule, the “NF-kB SEAP reporter activity” value (RAW-Dual [2]; [8]) was 0.958.
With CNC(=O)c1cc(COc2nnc(Nc3ccc(Cl)cc3)c3ccoc23)ccn1 the “NF-kB SEAP reporter activity” value (RAW-Dual [1]; [4]) was 1.12 and the “NF-kB SEAP reporter activity” value (RAW-Dual [1]; [5]) was 0.931.
In the case of O=C(O)/C=C/c1ccc(Cn2ccnc2)cc1, the “NF-kB SEAP reporter activity” value (RAW-Dual [1]; [4]) is reported as 0.986 and the “NF-kB SEAP reporter activity” value (RAW-Dual [1]; [5]) is reported as 1.02.
O=C(O)/C=C/c1ccc(Cn2ccnc2)cc1 (library stock concentration (final ~1000-fold dilution): 10 mM) was tested, and the “NF-kB SEAP reporter activity” value (RAW-Dual [2]; agonist: LPS (TLR4) 0.1 ug/mL) was 0.931, the “NF-kB SEAP reporter activity” value (RAW-Dual [2]; [6]) was 1.02 and the “NF-kB SEAP reporter activity” value (RAW-Dual [2]; [7]) was 1.02. For the same molecule, the “NF-kB SEAP reporter activity” value (RAW-Dual [2]; [8]) was 1.05.
For COc1cc2nccc(Oc3ccc(NC(=O)C4(C(=O)Nc5ccc(F)cc5)CC4)cc3)c2cc1OC (library stock concentration (final ~1000-fold dilution): 10 mM), the “NF-kB SEAP reporter activity” value (RAW-Dual [2]; agonist: LPS (TLR4) 0.1 ug/mL) was 0.511, the “NF-kB SEAP reporter activity” value (RAW-Dual [2]; [6]) was 0.42 and the “NF-kB SEAP reporter activity” value (RAW-Dual [2]; [7]) was 0.302. The “NF-kB SEAP reporter activity” value (RAW-Dual [2]; [8]) was 0.275.
For COc1cc2nccc(Oc3ccc(NC(=O)C4(C(=O)Nc5ccc(F)cc5)CC4)cc3)c2cc1OC, the “NF-kB SEAP reporter activity” value (RAW-Dual [1]; [4]) was 0.555 and the “NF-kB SEAP reporter activity” value (RAW-Dual [1]; [5]) was 0.59.
For Cl.Nc1ncccc1-c1nc2ccc(-c3ccccc3)nc2n1-c1ccc(C2(N)CCC2)cc1, the “NF-kB SEAP reporter activity” value (RAW-Dual [1]; cytotoxicity flag (confluency mask): cytotoxic (confluency <70% of control), agonist: Imiquimod (TLR7) […]) was 1.7 and the “NF-kB SEAP reporter activity” value (RAW-Dual [1]; cytotoxicity flag (confluency mask): cytotoxic (confluency <70% of control), agonist: MPLA (TLR4) […]) was 1.8.
For Cl.Nc1ncccc1-c1nc2ccc(-c3ccccc3)nc2n1-c1ccc(C2(N)CCC2)cc1 (library stock concentration (final ~1000-fold dilution): 10 mM), the “NF-kB SEAP reporter activity” value (RAW-Dual [3]; agonist: LPS (TLR4) 0.1 ug/mL) was 0.954, the “NF-kB SEAP reporter activity” value (RAW-Dual [3]; [6]) was 0.218 and the “NF-kB SEAP reporter activity” value (RAW-Dual [3]; [7]) was 0.921. For the same molecule, the “NF-kB SEAP reporter activity” value (RAW-Dual [3]; [8]) was 1.38.
For CC(C)=CCC/C(C)=C/CC/C(C)=C/CC/C(C)=C/CC/C(C)=C/CC/C(C)=C/CC/C(C)=C/CC/C(C)=C/CC/C(C)=C/CO (library stock concentration (final ~1000-fold dilution): 10 mM), the “NF-kB SEAP reporter activity” value (RAW-Dual [2]; agonist: LPS (TLR4) 0.1 ug/mL) was 0.89, the “NF-kB SEAP reporter activity” value (RAW-Dual [2]; [6]) was 0.925 and the “NF-kB SEAP reporter activity” value (RAW-Dual [2]; [7]) was 0.89. For the same molecule, the “NF-kB SEAP reporter activity” value (RAW-Dual [2]; [8]) was 0.954.
For CC(C)=CCC/C(C)=C/CC/C(C)=C/CC/C(C)=C/CC/C(C)=C/CC/C(C)=C/CC/C(C)=C/CC/C(C)=C/CC/C(C)=C/CO, the “NF-kB SEAP reporter activity” value (RAW-Dual [1]; [4]) was 0.89 and the “NF-kB SEAP reporter activity” value (RAW-Dual [1]; [5]) was 0.978.
For COCCOC(=O)C1=C(C)NC(C)=C(C(=O)OC/C=C/c2ccccc2)C1c1cccc([N+](=O)[O-])c1 (stereo not given) (library stock concentration (final ~1000-fold dilution): 10 mM), the “NF-kB SEAP reporter activity” value (RAW-Dual [2]; agonist: LPS (TLR4) 0.1 ug/mL) was 0.744, the “NF-kB SEAP reporter activity” value (RAW-Dual [2]; [6]) was 0.511 and the “NF-kB SEAP reporter activity” value (RAW-Dual [2]; [7]) was 0.375. For the same molecule, the “NF-kB SEAP reporter activity” value (RAW-Dual [2]; [8]) was 0.398.
For COCCOC(=O)C1=C(C)NC(C)=C(C(=O)OC/C=C/c2ccccc2)C1c1cccc([N+](=O)[O-])c1 (stereo not given), the “NF-kB SEAP reporter activity” value (RAW-Dual [1]; [4]) was 0.933 and the “NF-kB SEAP reporter activity” value (RAW-Dual [1]; [5]) was 0.64.
